Measured values from PMC7819943, “Rice protein-binding microarrays: a tool to detect cis-acting elements near promoter regions in rice”.
Some of the results follow.

Target: T1, OsWOX13 (Oryza sativa, UniProt Q5QMM3 1-267)
T1 sequence: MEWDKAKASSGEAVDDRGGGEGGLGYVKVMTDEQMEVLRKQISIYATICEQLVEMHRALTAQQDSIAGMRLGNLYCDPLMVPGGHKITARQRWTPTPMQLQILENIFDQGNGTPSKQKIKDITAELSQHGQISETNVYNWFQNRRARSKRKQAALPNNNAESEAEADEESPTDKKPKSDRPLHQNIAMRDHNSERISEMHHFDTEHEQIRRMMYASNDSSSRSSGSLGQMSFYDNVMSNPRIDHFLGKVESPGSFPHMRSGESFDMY
Assay: protein-binding microarray (RPBM); PBS, 2% BSA, 51.3 ng/ul salmon testes DNA, 50 uM zinc acetate, 200 nM TF, 25 C, 1 h; high values mean tight binding
Details: protein: recombinant; tags: N-terminal polyhistidine and DsRed monomer fusion (pET32a); label: CyDye5-dUTP incorporated in the synthesized complementary strand; 3' TTTTT single-stranded linker to array surface; dsDNA, one strand shown
In short: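 In PBS with 2% BSA, salmon testes DNA and 50 µM zinc acetate, 200 nM protein was incubated on a custom Agilent array at 25 °C for 1 h and then washed off. The array had been made double-stranded by primer extension with Cy5-dUTP and blocked with 2% BSA. The proteins were transcription factors fused N-terminally to polyhistidine and DsRed, expressed in E. coli BL21-CodonPlus and purified on Ni–NTA. The binding signal is per-feature fluorescence intensity (arbitrary units) from an Axon 4000B scanner.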

Sequence | binding signal
CAATCTATCATTCTAATAACTGCACATTCAGTATCTCCAGCGGAGTCACCTAGTGCAG | 4260 fluorescence intensity (a.u.)
CAATTCACTTTCAATCAGGACTCTGCATCATCCCAGACGGCGGAGTCACCTAGTGCAG | 15900 fluorescence intensity (a.u.)
AAAATTTCTAACCGTATAATCACTCGGTCTAATGGTCGTACGGAGTCACCTAGTGCAG | 3230 fluorescence intensity (a.u.)
ATATAACTTAACAATCATCTGGATCTGATTGCTTAAACTCCGGAGTCACCTAGTGCAG | 36300 fluorescence intensity (a.u.)
AGTCATCAAAATTACGCATGTAATTAGTATATATAATTATCGGAGTCACCTAGTGCAG | 9910 fluorescence intensity (a.u.)
GTAATTATCTATGAGATAAATTATAGGGACCCTGCTATGACGGAGTCACCTAGTGCAG | 6980 fluorescence intensity (a.u.)
TCACTAATCTTATAACTAATCAAGCATTGACGCAGATGATCGGAGTCACCTAGTGCAG | 11200 fluorescence intensity (a.u.)
TAGGATTGTTAATTATACCTACCTAAGCATACGATATTCACGGAGTCACCTAGTGCAG | 12400 fluorescence intensity (a.u.)
ACACTAATTAACCCTAAAACGAAAAGATAATCCAGCTATGCGGAGTCACCTAGTGCAG | 17100 fluorescence intensity (a.u.)
TGAAATTTCTACTGTCATGCTTCCTTGTCCCATTACTACACGGAGTCACCTAGTGCAG | 3170 fluorescence intensity (a.u.)
GTTGTGATAATTACAAGAAACACTTACGGGTAGCCGTGATCGGAGTCACCTAGTGCAG | 8530 fluorescence intensity (a.u.)
CCCAGAGCTAATTAGACCACTACTGAATAATGACACTTTCCGGAGTCACCTAGTGCAG | 11000 fluorescence intensity (a.u.)
AAGATAGATAGATAGATAGATAGATAGATCGATCGATCATCGGAGTCACCTAGTGCAG | 14900 fluorescence intensity (a.u.)
GTCCATGATTAGCCATAAGTGCTACCGTAACCCACCTGTGCGGAGTCACCTAGTGCAG | 23300 fluorescence intensity (a.u.)
AATGGTAATTAAGAATTTACTACTCACAGTCTATAATACGCGGAGTCACCTAGTGCAG | 8680 fluorescence intensity (a.u.)
AAACCGAATTGAAGTTTATAAATTTGTCAGAATTTATCTTCGGAGTCACCTAGTGCAG | 5290 fluorescence intensity (a.u.)
GCCCCGAGTTTTGATTGGTTATTCGTTGCTGCTTGTAAACCGGAGTCACCTAGTGCAG | 24100 fluorescence intensity (a.u.)
TCACGGATTAAATTTCGATCATTTTGAGGGTCACAAAGTGCGGAGTCACCTAGTGCAG | 6040 fluorescence intensity (a.u.)
GGTCATTTTGCCTAATTAACCCAGGCAATAATAAACATCTCGGAGTCACCTAGTGCAG | 5120 fluorescence intensity (a.u.)
ATACAATTACAAGTCATTTTCAATGTAACTAACAATAGATCGGAGTCACCTAGTGCAG | 4380 fluorescence intensity (a.u.)
TGTGATTGAGGGAGTTAATTAGGACAAGTTAATAAGTGGCCGGAGTCACCTAGTGCAG | 64500 fluorescence intensity (a.u.)

Sequence | binding signal
CAAATGAGATTATAAATCATTTTCAGATTACCTCTAATAGCGGAGTCACCTAGTGCAG | 16700 fluorescence intensity (a.u.)
AAAACTCAATTAAACACACATTATTACCACCTCATTTTGCCGGAGTCACCTAGTGCAG | 5860 fluorescence intensity (a.u.)
GTAAATTGCGTCCACGGTATATAAACTTGGTAGGTGGGTGCGGAGTCACCTAGTGCAG | 12600 fluorescence intensity (a.u.)
CTCCAAGTCTGACTCAAACCAATCAATTCCACACAAGTTCCGGAGTCACCTAGTGCAG | 4080 fluorescence intensity (a.u.)
TGTGATTAGTACAGTAGTTTAATTAGAATTTTGAGGGCTTCGGAGTCACCTAGTGCAG | 44000 fluorescence intensity (a.u.)
GAGATTATAGATTTATTTGCGGCCTCCATCTGTTGATCATCGGAGTCACCTAGTGCAG | 18400 fluorescence intensity (a.u.)
CTGAGCCTGATTTGCTCCCTTGTCAGTCGCGTTGGTTGGCCGGAGTCACCTAGTGCAG | 13300 fluorescence intensity (a.u.)
TTAAGATTATTATAATCTAGATTATTAAATCAGATTACTCCGGAGTCACCTAGTGCAG | 18600 fluorescence intensity (a.u.)
CATGGACAACAATCATTGCCTGTTACGCGCAAAGTTCTCGCGGAGTCACCTAGTGCAG | 8490 fluorescence intensity (a.u.)
TTTAATTTACCCATTGATCTAGCTCGCGATATATATGATCCGGAGTCACCTAGTGCAG | 22000 fluorescence intensity (a.u.)
TAGGTGAAATTGGTATTATAATATCGTCGAAATTTCGTAGCGGAGTCACCTAGTGCAG | 5030 fluorescence intensity (a.u.)
CTGATAGATAGCCGTCCGATCCGCGCGGCTCGATCACACGCGGAGTCACCTAGTGCAG | 14000 fluorescence intensity (a.u.)
GCTGTGATTTGCATGCATGCAAAATCTATCTACGTGCAAACGGAGTCACCTAGTGCAG | 12700 fluorescence intensity (a.u.)
GGTAATTTGATCGACCGCAATAGTTCATGGGGTAATTTGGCGGAGTCACCTAGTGCAG | 34800 fluorescence intensity (a.u.)
AGCCCACGTTAATTGGCCTCTGACTTCCCTACGTTCTCCTCGGAGTCACCTAGTGCAG | 19100 fluorescence intensity (a.u.)
TCCATTTCAGAATAAATTAATCTATCACGAGATGTGATATCGGAGTCACCTAGTGCAG | 8230 fluorescence intensity (a.u.)
AATATACACTTGATTAGTACTAATCAATCCAAAGCAATGACGGAGTCACCTAGTGCAG | 23500 fluorescence intensity (a.u.)
TTTAAATTTAATTCCAAGGAATGGCGAGTTCGTGCTGAGCCGGAGTCACCTAGTGCAG | 17500 fluorescence intensity (a.u.)
ATAAACTTACAATTTTATAAACTTACTCTATCACCTTTGTCGGAGTCACCTAGTGCAG | 4410 fluorescence intensity (a.u.)
ACTGATTTGGTGGACAACTCTTGAAGTTGAAGAAGCTCTCCGGAGTCACCTAGTGCAG | 14200 fluorescence intensity (a.u.)
TGTTGCTTGCTAATTGCTATCTTGACTTATTATTTGGTTTCGGAGTCACCTAGTGCAG | 4860 fluorescence intensity (a.u.)
